Molecules are shown by their SMILES. About 550 (1.1%) of roughly 48,000 compounds were called active. Roughly 4% stayed inconclusive and do not appear here. Cut-off read from the data, not from the text of the source: active = potency below about 15 µM; inconclusive = mostly about 16 µM to 33 µM; inactive = weaker than that. The list shows a part of the results.
Potency is the fitted concentration of half-maximal effect.

Chain of UniProt P04062 (P04062 whole entry, looked up): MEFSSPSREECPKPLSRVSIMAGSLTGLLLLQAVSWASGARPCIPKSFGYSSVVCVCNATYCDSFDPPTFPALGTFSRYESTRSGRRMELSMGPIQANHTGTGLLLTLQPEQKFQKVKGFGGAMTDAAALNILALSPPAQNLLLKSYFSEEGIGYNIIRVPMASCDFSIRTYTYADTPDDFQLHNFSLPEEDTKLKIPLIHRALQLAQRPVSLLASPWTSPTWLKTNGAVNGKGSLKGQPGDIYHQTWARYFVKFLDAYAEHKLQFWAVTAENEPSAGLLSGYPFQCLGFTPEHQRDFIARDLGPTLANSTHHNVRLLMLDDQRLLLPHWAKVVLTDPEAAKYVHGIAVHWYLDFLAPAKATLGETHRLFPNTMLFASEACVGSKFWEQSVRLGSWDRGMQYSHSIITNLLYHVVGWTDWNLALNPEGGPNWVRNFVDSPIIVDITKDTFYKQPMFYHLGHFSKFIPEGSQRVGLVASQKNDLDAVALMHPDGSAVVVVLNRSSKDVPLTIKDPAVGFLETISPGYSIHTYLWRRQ

The experiment addresses Lysosomal acid glucosylceramidase (Homo sapiens) (UniProt P04062). The experiment in a line: Glucocerebrosidase.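 Note: the screen sought inhibitors.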 Particulars: purified enzyme, resorufin glucoside fluorescence (screen aimed at inhibitors), 20 min. The gist of the method:
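Compounds titrated against 0.2 nM normal enzyme, 30 uM resorufin beta-D-glucopyranoside substrate, citrate/phosphate buffer with taurocholate and tween-20, pH 5.9. Reaction ran 20 min at room temperature; fluorescence (Ex 548/Em 600) gave AC50.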
On to `O=C(c1ccc2c(c1)c(=O)oc1ccccc12)N1CCCCC1`, for which the Potency was inactive: > 76.9 µM. The value for `CSc1nnc([C@@H](NC(=O)OC(C)(C)C)C(C)C)o1` was inactive: > 76.9 µM. For the compound `COC(=O)Nc1ccc(S(=O)(=O)Nc2ccccc2F)cc1`, the Potency was inactive: > 76.9 µM. The value for `Cc1ccc(O)c(C(=O)c2cnc3c(c2)CN(CCC(C)C)C(=O)N3)c1` was inactive: > 76.9 µM; that for `COc1cc2c(cc1OC)CN(C(=O)CSc1nnc(C)s1)CC2` was inactive: > 76.9 µM; that for `Cc1csc2c(C#N)c(=O)c3c(n12)CCC3` was inactive: > 76.9 µM. The value for `COC(=O)c1sc(=S)n(-c2cccc(Cl)c2)c1N` was “inactive”; that for `CCOC(=O)c1[nH]c(C)c(C(=O)NCCCN2CCOCC2)c1C` was inactive: > 76.9 µM.

Regarding `CCCCCOc1ccc(N2C(=O)CC(N(O)c3ccccc3)C2=O)cc1` (stereo not drawn), the Potency is inactive: > 76.9 µM. The value for `Cc1cc2nc(-c3ccc(SCC(=O)N4CCOCC4)nc3)[nH]c2cc1C` was inactive: > 76.9 µM. Then `O=C1C2CCCN2C(c2ccccc2)N1c1nccs1` (stereo not drawn), with inactive: > 76.9 µM. The value for `Cc1ccc(CN2CC34C=CC(O3)C(C(=O)NCc3ccc5c(c3)OCO5)C4C2=O)cc1` (stereo not drawn) was inactive: > 76.9 µM; that for `O=C(O)CSCCCC(=O)Nc1ccc(Br)cc1` was inactive: > 76.9 µM; that for `CCn1c(NCCc2ccc(OC)c(OC)c2)nc2c1c(=O)n(C)c(=O)n2C` was inactive: > 76.9 µM. As for `O=C1N2CCSC2=NC1(Nc1nccs1)C(F)(F)F` (stereo not drawn), the Potency is inactive: > 76.9 µM. Then `O=C(O)CCC(=O)Nc1ccc(N2CCOCC2)cc1`, with inactive: > 76.9 µM; and `COc1ccccc1C(=O)Nc1ccc(S(=O)(=O)N2CCCC2)cc1`, with inactive: > 76.9 µM.

On to `CC(C)(C)NC(=O)Cn1c(SCC(=O)NC2CCCCC2)nc2ccccc21`, for which the Potency was inactive: > 76.9 µM.

With `CC1=C(C(=O)OCc2ccccc2)C(c2cccnc2)n2ncnc2N1` (stereo not drawn), the Potency was inactive: > 76.9 µM. Then `Cn1c2ccccc2c2c(C(=O)N3CCN(c4ccccc4)CC3)cn(C3CCCC3)c(=O)c21`, with inactive: > 76.9 µM; and `CCOC(=O)c1sc(NC(=O)C(CC)Sc2nnc3c4ccccc4n(CC)c3n2)nc1C` (stereo not drawn), with inactive: > 76.9 µM; and `Cc1ccc2cc(C#N)c(N3CCCN(C(=O)C4CCCO4)CC3)nc2c1` (stereo not drawn), with inactive: > 76.9 µM. The value for `Cc1nn(-c2ccccc2C(=O)O)c(=O)c2ccccc12` was inactive: > 76.9 µM; that for `CC(C)(C)n1ncc2c(=O)n(CC(=O)NCc3ccco3)cnc21` was inactive: > 76.9 µM; that for `O=S(=O)(/N=C(\c1ccccc1)N1CCOCC1)c1cccs1` was inactive: > 76.9 µM. The value for `CCCOC(=O)C1[C@H]2C(=O)N(CC3CCCO3)C[C@]23C=C[C@H]1O3` (stereo partly drawn) was inactive: > 76.9 µM; that for `O=C(Nc1ccccc1N1CCCC1)c1ccc(Br)o1` was inactive: > 76.9 µM; that for `COc1ccc(C)cc1NC(=O)CN(Cc1nnc(-c2ccc(Cl)cc2)o1)C1CCCC1` was inactive: > 76.9 µM.

On to `CC1CC(c2ccccc2)n2nc(NC(=O)CCc3ccccc3)nc2N1` (stereo not drawn), for which the Potency was inactive: > 76.9 µM. As to `CCOC(=O)CC1Sc2ccccc2NC1=O` (stereo not drawn), the Potency was inactive: > 76.9 µM. For `CCOCC(=O)N1CCN(c2ccc(F)cc2)CC1`, the Potency was inactive: > 76.9 µM. Then `CCC(C)N=C1SCC(C)(/C=N/O)S1` (stereo not drawn), with inactive: > 76.9 µM; and `O=C(Nc1ccc2oc(=O)ccc2c1)c1ccco1`, with inactive: > 76.9 µM; and `O=C(NCc1ccc2c(c1)OCO2)c1ccc2c(=O)n(C3CCCC3)c(=O)[nH]c2c1`, with inactive: > 76.9 µM. The value for `Cc1noc(C)c1C(=O)NCCC1=CCCCC1` was inactive: > 76.9 µM; that for `COC(=O)c1ccc(C(=O)OC)c(NC(=O)CSc2nnc(-c3ccccc3Cl)o2)c1` was inactive: > 76.9 µM. With `CCCc1cc(=O)[nH]c(/N=C(/NC(=O)C(C)N2C(=O)c3ccccc3C2=O)Nc2ccccc2)n1` (stereo not drawn), the Potency is inactive: > 76.9 µM. Then `CCN(CC)CCNC(=O)C1c2ccccc2C(=O)N(C)C1c1cn(C)c2ccccc12` (stereo not drawn), with inactive: > 76.9 µM. The value for `CC(=O)OC(C(=O)NC1CCCCC1)c1ccncc1` (stereo not drawn) was inactive: > 76.9 µM; that for `COC(=O)CNC(=O)c1cn(CC(C)C)c(=O)c2cc(OC)c(OC)cc12` was inactive: > 76.9 µM. The value for `c1ccc(Cn2c(SCc3cn4cccnc4n3)nnc2-c2ccco2)cc1` was inactive: > 76.9 µM; that for `CN(c1ccc(C(=O)NCCC2=CCCCC2)cc1)S(C)(=O)=O` was inactive: > 76.9 µM; that for `CCN(CC)S(=O)(=O)c1ccc2c(c1)nc(SCc1nc3ccsc3c(=O)[nH]1)n2CC` was inactive: > 76.9 µM.

With `O=C(NCc1ccco1)c1cc2ccccc2c(=O)o1`, the Potency is inactive: > 76.9 µM.

Turning to `CC(NC(=O)C1CCCCC1)c1ccc2c(c1)OCCO2` (stereo not drawn), the Potency is inactive: > 76.9 µM. Consider `CCn1c(SCC(=O)c2cc(C)n(-c3ccc(C(=O)OC)cc3)c2C)nnc1-c1cccnc1`, for which the Potency was inactive: > 76.9 µM.

Regarding `O=C(CSc1ncccc1-c1nc2ccccc2[nH]1)NC1CC1`, the Potency was inactive: > 76.9 µM. Then `CCOC(=O)c1nnn(CC(=O)Nc2ccccc2OC)c1C(=O)OCC`, with inactive: > 76.9 µM. Then `O=C(Nc1ccc(Cl)cc1)C1CC=CCC1C(=O)OCC(F)(F)C(F)F` (stereo not drawn), with inactive: > 76.9 µM. For `CC(C)OP(=O)(c1ccc(N(C)C)cc1)C(O)c1ccncc1` (stereo not drawn), the Potency was inactive: > 76.9 µM.

Turning to `COc1cccc(C(=O)NC(C)C(c2cccs2)N2CCN(C)CC2)c1` (stereo not drawn), the Potency is inactive: > 76.9 µM. The value for `CCOc1cc(C)c(C(C)C)cc1S(=O)(=O)NCc1ccccn1` was inactive: > 76.9 µM; that for `Oc1ccccc1C1Nc2cccc3cccc(c23)N1` was inactive: > 76.9 µM. The value for `CCCCCNc1c(C(=O)OCC)c(=O)[nH]c2ccccc12` was inactive: > 76.9 µM; that for `N#CC1=C(N)SC(N)=C(C#N)C1CCC1CCCCC1` was “inactive”; that for `Cc1nnc(NC2=NCCC2)o1` was inactive: > 76.9 µM. The value for `Cc1ccc(Nc2ncc3c(n2)CC(c2ccco2)CC3=O)c(C)c1` (stereo not drawn) was inactive: > 76.9 µM; that for `COc1cc(CN2CCC(C(=O)N3CCN(c4ccccc4F)CC3)CC2)cc(OC)c1OC` was inactive: > 76.9 µM.

The values are drawn from PubChem BioAssay AID360 (National Center for Advancing Translational Sciences (NCATS), 2006).
